In the supplement of paper PMC10126150:
Values marked as one replicate rest on one cluster of the flow cell; about a third of the high ones do not repeat.

System: ATP
Assay: switch fluorescence ratio, 500 uM ATP over buffer (Cy3 cluster intensity, sum of 5 cycles each) (fold (ratio)); higher = stronger signal-on switching upon ATP binding; sequences stand for … in TCGTCGGCAGCGTCAGATGTGTATAAGAGACAGTTTTTTTTTTTTTTTTTTTTTTTTT…TC
Details: aptamer strand: ATP DNA aptamer (quencher-CACCTGGGGGAGTATTGCGGAGGAAGG + anchor), 100 nM annealed; ATP concentration: 500 uM; one replicate
Outline: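 Switching-strand clusters labelled with Cy3 on a modified Illumina MiSeq flow-cell were annealed to 100 nM quencher-labelled ATP aptamer, imaged in selection buffer, and re-imaged after 15 min with 500 uM ATP at 22 °C. This was done over five cycles with NaOH stripping and re-annealing in between. The fluorescence ratio is summed target-cycle over summed buffer-cycle Cy3 intensity per cluster, averaged per switch-domain sequence, excluding clusters outside 100-1000 RFU.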
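Note: ATP exposure 15 min at 22 °C before imaging.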

| Sequence | switch fluorescence ratio |
| --- | --- |
| CGCCGGTTTC | 1.02 |
| CAGGGGGAGA | 0.999 |
| TGAGGATTCT | 1.01 |
| AATTACCTTA | 1.05 |
| TAAAAACTTG | 1.03 |
| CAATACACCT | 1.53 |
| CGTCCTTTGC | 0.98 |
| CGGTGGATAA | 1.02 |
| AAGGTGGTGT | 1.05 |
| ATTTGCTGC | 1 |
| GTTCGTAGTC | 0.945 |
| TGTGGAATCC | 0.994 |
| AAAAACCTGG | 1.23 |
| ATTAATATCT | 1.01 |
| ATCAAGACAT | 1.09 |
| GTCAAATACG | 1.03 |
| TGTTATCTAC | 1.04 |
| AACTGTGGA | 0.963 |
| TTATAATAAA | 0.995 |
| TCTTGTGACG | 1.08 |
| TCTGGGAAAC | 1.02 |
| GAGAAGTAAG | 1.03 |
| ATACACTTAA | 1.09 |

| Sequence | switch fluorescence ratio |
| --- | --- |
| GGGGGTTGC | 1.03 |
| CGTTTCCCCC | 1.24 |
| ACCATTTACC | 1.06 |
| CGAAAGAAGT | 0.996 |
| CTTGGGCGAG | 0.997 |
| GGCCCGAGGA | 1.05 |
| GGGCATTTGT | 0.986 |
| GATCTAAACT | 0.992 |
| AAGAGGCTTG | 1 |
| TGTTAGCTGC | 1.05 |
| TGGAGGGTGC | 1.07 |
| GGGTACCAG | 0.974 |
| TTCCGCTTAT | 3.31 |
| CGCTTCACGA | 0.998 |
| AAGTAGAATC | 0.944 |
| CCCCTAGGGC | 1.15 |
| AACGATCAA | 1 |
| GACTTGGCCT | 1.06 |
| GCAGGGTACA | 0.986 |
| GAACTCGTGC | 0.975 |
| AGTAAACTCT | 1.05 |
| ACATCTAAGA | 0.99 |
| CTAATGTAGG | 1 |

| Sequence | switch fluorescence ratio |
| --- | --- |
| ACTGGTGCG | 0.96 |
| CTTAAAAAAA | 0.96 |
| ATGAGCGGAG | 1 |
| CTCCACTGCT | 1.07 |
| GGATACTAAG | 1.03 |
| ACGGTACCTT | 1.42 |
| CTTGAGCACC | 1.09 |
| TTATTCTCGT | 0.978 |
| CTCGGGTTGT | 1.01 |
| CAAAGAATCC | 1 |
| AGTTCATTCG | 1.03 |
| GGGCACAATA | 1.02 |
| GCGCGTTTCC | 1.03 |
| CCTACTAAAA | 2.99 |
| AGGGGGTCA | 1.02 |
| TTCGCTGATG | 0.997 |
| GCGGGAATCG | 1.02 |
| AGTTTTTCCT | 1.04 |
| TGGATAACCG | 0.976 |
| TAATCCCCTC | 1.06 |
| TGACTCCTTC | 1.09 |
| GATCGTAGAC | 1.03 |
| CGTGAGGGCT | 0.965 |

| Sequence | switch fluorescence ratio |
| --- | --- |
| GCAGGGCGCG | 0.998 |
| GGATTTAGGG | 0.958 |
| AAAAGCAGCA | 1.04 |
| AATGGTTCGT | 1 |
| GCCCTCTTGA | 1.04 |
| AAGCGGTGTG | 0.946 |
| GATCGCGGGT | 1.03 |
| GCTGTTAGCC | 0.979 |
| GATGATAACA | 0.99 |
| ACCTGTTATT | 1.02 |
| AGGGGCTGCA | 1.2 |
| GCACGTTTAG | 1.01 |
| AATGCTTTAA | 0.983 |
| TGGTTTCTCC | 1.23 |
| GTCTCATCGA | 1 |
| CCACTATACA | 1.32 |
| CTCTGTACTT | 1.14 |
| TTTTTCTCCA | 1.03 |
| GCTAGTGAAT | 0.994 |
| TCAGTTCAGA | 1.01 |
| TGGTAAGGCA | 1.03 |
| CGACCAATGT | 2.2 |
| TTGACAGTGT | 0.968 |

| Sequence | switch fluorescence ratio |
| --- | --- |
| ACTGCAATTT | 1.2 |
| GGGCAATGTT | 1.01 |
| GAGTAAGCCA | 0.99 |
| TCGCGTGAGA | 1.06 |
| AACCTGGTAG | 1.06 |
| AATGGGCGGT | 1.01 |
| GCGTGACTTT | 0.946 |
| CAGTCGAGTC | 0.967 |
| GACACTAGCC | 1.07 |
| GTCGGTATAG | 0.989 |
| CAAGTTCGCC | 0.976 |
| GGATGCGTGC | 1.02 |
| ATCCCGTAAC | 1.29 |
| TGTACTTTTC | 0.988 |
| TTAAGCATGG | 1.06 |
| GTTTGTGTCG | 0.978 |
| GACTTACCCA | 1.16 |
| GCGGTCGGCG | 1.01 |
| AGGTGTCTAG | 0.996 |
| GAGCGGGGAA | 0.989 |
| GAGTTGTAAC | 1.04 |
| AGCTTGACTC | 1.08 |
| TCCTGTTTCT | 1.01 |

| Sequence | switch fluorescence ratio |
| --- | --- |
| TAACAGTCGG | 1.05 |
| AAAGTCAGTT | 1.01 |
| GACGTTAATG | 0.978 |
| ACACGGAATC | 1.65 |
| TCAGGGAAGT | 0.978 |
| ATCAATTTTG | 0.994 |
| AATAAGGTCC | 0.928 |
| TAGATGGTTC | 1.01 |
| AACTCACTAT | 1.16 |
| TAATGCCATC | 0.969 |
| TAGTGTCCTA | 0.939 |
| ACTATCAAAA | 0.941 |
| GGCTTAAAGC | 0.996 |
| TGGTTGCTTT | 1.06 |
| CATGTTGGGC | 0.981 |
| GGAATTGGCA | 0.964 |
| GCGACCCATG | 1.04 |
| ACTACTTTGA | 1.05 |
| CCGTCACCGT | 1.11 |
| AGGGCCATCT | 1.06 |
| ATATATTAGG | 1.02 |
| CGACGGGCCC | 1.02 |
| AGGGGGTGA | 1.01 |

| Sequence | switch fluorescence ratio |
| --- | --- |
| ACACGATAAG | 1.09 |
| TTAGTCGT | 0.997 |
| CACAACTTCA | 1.02 |
| AGCAGCTGTT | 0.986 |
| GACTATGCTC | 1.04 |
| TGTATCCTAG | 0.944 |
| GGCAATTCGT | 1.14 |
| ACTTTAGTAC | 1.01 |
| GGGGTTGCAA | 0.992 |
| AGATGACTAC | 1.02 |
| TCACGTCCGA | 1.02 |
| GGGATGACAA | 0.99 |
| AGGCCCTACC | 1.06 |
| AGGAACGTAT | 1.02 |
| ACTAGTTAAA | 1.04 |
| GTTTGCATTC | 1.05 |
| CTACTACCA | 1.14 |
| AATTAGTACC | 0.945 |
| CCGCGTGTTA | 1.02 |
